Experimental data published in ChEMBL document CHEMBL4888484, “Replenishing the malaria drug discovery pipeline: Screening and hit evaluation of the MMV Hit Generation Library 1 (HGL1) against asexual blood stage Plasmodium falciparum ,using a nano luciferase reporter read-out” (2022).
In all, about 150,000 compounds went through this assay and about 540 (0.36%) showed an effect of 50% or more. The list shows a part of the results.

Each compound was assayed on Plasmodium falciparum (assay: Primary screen in NF54 nanoGlo assay, in single point, at 2uM, 72h; a lower Z score goes with more inhibition). Settings: timepoint 72 hour.
Assay type: functional, Erythrocyte

Q: For `c1ccc([C@@H]2CN(c3ccc4nccnc4n3)CCO2)cc1`, which “% Inhibition” value is on record?
A: 8%

Q: And the Z score?
A: -0.73

Q: What does the source list for `CN=C(NCc1noc(C)n1)N[C@@H](C)c1cccc(-n2cccn2)c1`?
A: % Inhibition: -2%; Z score: 0.35

Q: For `CC1CCNC(=O)C1NC(=O)NCCc1ccsc1` (centres undefined), which “% Inhibition” value is on record?
A: -13%

Q: And the Z score?
A: 1.67

Q: `O=C(C1CCCC1)N1CCc2nn(Cc3ccccc3)c(=O)n2CC1` was tested. Which “% Inhibition” value did it give?
A: -14%

Q: And the Z score?
A: 1.69

Q: What does the source list for `Cc1ccc2oc(CNc3nnc(C)n3C)cc2c1`?
A: % Inhibition: 7%; Z score: -1.06

Q: Which results are given for `COc1cc(C(=O)NC2(c3ccccc3)CCCC2)sc1S(N)(=O)=O`?
A: % Inhibition: -13%; Z score: 1.81

Q: What does the source list for `CC(C)c1nccc(-c2nccn2[C@H]2CC(=O)N(Cc3ccccc3)C2)n1`?
A: % Inhibition: -8%; Z score: 0.89

Q: How did the “% Inhibition” value turn out when `CN(C)CCO[C@H]1CCOC[C@H]1NC(=O)c1cccc(C(F)(F)F)c1` was run?
A: -5%

Q: What about the Z score of the same compound?
A: 0.79

Q: What does the source list for `CCOc1ccc(-c2cn(C3CN(C(=O)[C@H]4CCC(=O)N4)C3)nn2)cc1`?
A: % Inhibition: -14%; Z score: 1.24

Q: For `Cc1cc(C(F)(F)F)c(N2C[C@@H]3C(=O)NC(=O)[C@@H]3C2)nn1`, which “% Inhibition” value is on record?
A: -16%

Q: What about the Z score of the same compound?
A: 2.99

Q: Which results are given for `Cc1cnccc1CC(=O)N(C)CC(=O)Nc1cccc(Cl)c1`?
A: % Inhibition: -2%; Z score: 0.29

Q: For `O=C(Cc1cn(Cc2ccc(F)cc2)c2ccccc12)N1CCCc2ccccc21`, which “% Inhibition” value is on record?
A: -4%

Q: What about the Z score of the same compound?
A: 0.76

Q: With `CO[C@H](C(=O)Nc1sccc1S(C)(=O)=O)C1CC1` as the compound, how does the “% Inhibition” value read?
A: 24%

Q: What about the Z score of the same compound?
A: -2.7

Q: Which results are given for `CCOc1cc2c(cc1CN1CCc3[nH]cnc3[C@@H]1C(=O)O)CCC2`?
A: % Inhibition: -12%; Z score: 1.53

Q: What does the source list for `C[C@H](O)c1ccn(Cc2nnnn2-c2ccccc2)n1`?
A: % Inhibition: -5%; Z score: 0.78

Q: How did the “% Inhibition” value turn out when `COc1ccc(-c2noc(CCCC(=O)Nc3ccc(S(=O)(=O)N4CCC(C)CC4)cc3)n2)cc1` was run?
A: -26%

Q: And the Z score?
A: 2.3

Q: Which results are given for `CC(=O)N1CC(C(=O)NCc2cccnc2)CCC1c1cccc(C(F)(F)F)c1` (centres undefined)?
A: % Inhibition: -9%; Z score: 0.99

Q: How did the “% Inhibition” value turn out when `CC[C@H](C)NC(=O)Cn1c(=O)ccc2cc(S(=O)(=O)N3CCC(C)CC3)ccc21` was run?
A: -4%

Q: And the Z score?
A: 0.54

Q: For `COCc1noc(CN2CC(=O)N(c3cccc(Cl)c3)C[C@@H]2C)n1`, which “% Inhibition” value is on record?
A: 7%

Q: And the Z score?
A: -0.9

Q: Which results are given for `CN1CCN(C(=O)c2cncc(-c3cccc4ccccc34)n2)CC1`?
A: % Inhibition: -3%; Z score: 0.51

Q: `Cc1ccc(C)c(Cn2c(C(=O)NCCc3ccccn3)cc3cc(NC(=O)COc4ccc(Cl)cc4)ccc32)c1` was tested. Which “% Inhibition” value did it give?
A: 30%

Q: What about the Z score of the same compound?
A: -3.61

Q: For `O=C1C[C@H](c2nc(C3CC3)no2)CN1c1ccccc1`, which “% Inhibition” value is on record?
A: -1%

Q: What about the Z score of the same compound?
A: 0.11

Q: For `CC(=O)Nc1c(-c2ccccn2)nsc1C(=O)NCc1ccccc1C`, which “% Inhibition” value is on record?
A: -9%

Q: What about the Z score of the same compound?
A: 0.86

Q: Which “% Inhibition” value does the source give for `COc1ccc(C)cc1S(=O)(=O)N1CCCN(C2CCC2)CC1` here?
A: -5%

Q: And the Z score?
A: 0.83

Q: `Cc1ccccc1-c1nnc2c3ccc(Cl)cc3nc(N3CCN(C(=O)C(C)C)[C@@H](C)C3)n12` was tested. Which “% Inhibition” value did it give?
A: 8%

Q: And the Z score?
A: -1.22

Q: What does the source list for `COc1cccc(C(=O)[C@H]2CCCN(C(=O)c3cc[n+]([O-])cc3)C2)c1`?
A: % Inhibition: 1%; Z score: -0.09

Q: How did the “% Inhibition” value turn out when `O=C(c1ccc2c(c1)OCCO2)N1CCc2ccccc21` was run?
A: -12%

Q: And the Z score?
A: 1.63

Q: Which “% Inhibition” value does the source give for `CCOc1ccc(S(=O)(=O)c2c(C(=O)N3CCCCC3)cnc3ccc(F)cc23)cc1` here?
A: -6%

Q: And the Z score?
A: 0.59

Q: For `NC(=O)COC(=O)[C@H](NCC(F)(F)F)c1cc(Cl)cc(Cl)c1`, which “% Inhibition” value is on record?
A: -14%

Q: And the Z score?
A: 1.89

Q: How did the “% Inhibition” value turn out when `O=C(N[C@H]1CCN(Cc2ccccn2)C[C@@H]1O)c1ccc(Cl)o1` was run?
A: -8%

Q: And the Z score?
A: 0.83

Q: With `CC(C)n1cnnc1[C@H](C)NC(=O)CN1CCOCC1` as the compound, how does the “% Inhibition” value read?
A: -1%

Q: What about the Z score of the same compound?
A: 0.11

Q: How did the “% Inhibition” value turn out when `O=C(O)c1cc(N2CCC[C@H](c3nccn3CC3CC3)C2)nc2ccccc12` was run?
A: -15%

Q: And the Z score?
A: 1.98

Q: `CC(C)NC(=O)N(CC(=O)Nc1nc(-c2ccccc2)cn1-c1ccc(C(C)C)cc1)CC1CC1` was tested. Which “% Inhibition” value did it give?
A: -13%

Q: And the Z score?
A: 1.84

Q: Which results are given for `Cc1ncc(CN(C)c2ccsc2)o1`?
A: % Inhibition: 2%; Z score: -0.18

Q: `Cn1nc(C2CC2)cc1C(=O)N[C@H]1CCO[C@H](c2cccnc2)C1` was tested. Which “% Inhibition” value did it give?
A: -7%

Q: What about the Z score of the same compound?
A: 0.92

Q: What does the source list for `Cc1cc(C)c2c(C)c3c(F)c(F)c(F)c(F)c3nc2c1`?
A: % Inhibition: -9%; Z score: 1.27

Q: For `Cc1nc2nc(CN3C[C@@H]4CC[C@H]3CN(c3ncccn3)C4)cc(O)n2n1`, which “% Inhibition” value is on record?
A: -12%

Q: What about the Z score of the same compound?
A: 2.02

Q: How did the “% Inhibition” value turn out when `CN1[C@@H](CCC(=O)NCc2cccs2)CNC(=O)[C@@H]2[C@H]1CCN2Cc1ccc(O)cc1` was run?
A: 11%

Q: What about the Z score of the same compound?
A: -1.42

Q: Which results are given for `CN1CCCOc2cccc(c2)[C@@H]2N(C(=O)Cn3cnnc3)CC[C@]23C(=O)N(CC1=O)c1ccccc13`?
A: % Inhibition: -3%; Z score: 0.62

Q: How did the “% Inhibition” value turn out when `CCC(CC)NC(=O)Nc1ccc(C)cc1` was run?
A: 5%

Q: What about the Z score of the same compound?
A: -0.91

Q: How did the “% Inhibition” value turn out when `CCc1nc2n(n1)C(c1ccc(N(C)C)cc1)CC(C)N2` (centres undefined) was run?
A: 2%

Q: What about the Z score of the same compound?
A: -0.24

Q: What does the source list for `Cc1ccc(C(C)NC(=O)C2COCC(=O)N2Cc2ccccc2)o1` (centres undefined)?
A: % Inhibition: 7%; Z score: -1.06

Q: Which “% Inhibition” value does the source give for `COc1ccc(-n2nnnc2-n2cccn2)cc1N` here?
A: 2%

Q: What about the Z score of the same compound?
A: -0.32

Q: How did the “% Inhibition” value turn out when `Cc1ncc(-c2cc(NC(C)C)ccc2C)o1` was run?
A: 4%

Q: What about the Z score of the same compound?
A: -0.43

Q: Which “% Inhibition” value does the source give for `CNC(=O)c1cc(S(=O)(=O)N2CCC3C(CCC(=O)N3C3CC3)C2)cn1C` (centres undefined) here?
A: -11%

Q: And the Z score?
A: 1.1

Q: Which results are given for `O=C(c1ccccc1)N1C(F)(F)C1(C(F)(F)F)C(F)(F)F`?
A: % Inhibition: 1%; Z score: -0.1

Q: Which “% Inhibition” value does the source give for `COc1ccc(Cl)cc1C(CC(C)C)NC(=O)C1CN(C)CCO1` (centres undefined) here?
A: 5%

Q: And the Z score?
A: -0.97

Q: Which “% Inhibition” value does the source give for `CCC1CCCCN1Cc1ccc(CNC(=O)C2CCCN(c3ncnc4c3nc3n4CCCCC3)C2)o1` (centres undefined) here?
A: -1%

Q: And the Z score?
A: 0.24

Q: With `Cc1nc(C2CN(c3ncnc4c3CCCC4)C2)n[nH]1` as the compound, how does the “% Inhibition” value read?
A: -5%

Q: And the Z score?
A: 0.97

Q: How did the “% Inhibition” value turn out when `O=C(NCc1ccc(S(=O)(=O)N2CCCC2)cc1)c1cc[nH]n1` was run?
A: 33%

Q: What about the Z score of the same compound?
A: -4.84

Q: What does the source list for `O=C(c1ccccc1)N1CCCCCO1`?
A: % Inhibition: 2%; Z score: -0.26

Q: For `C[C@@H]1CC[C@H](CO)N1C(=O)Cn1nc(C(F)(F)F)c2c1CCOC2`, which “% Inhibition” value is on record?
A: 12%

Q: And the Z score?
A: -2.26
